This is one part of the list.
Tested on: PfAP2-HC AP2 domain (GST-tagged)
Assay: gcPBM binding intensity (ln(normalized median fluorescence intensity)); higher = stronger DNA binding
How it was run: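 After 1 h on an Agilent 4 × 180k array of primer-extended double-stranded 36-bp intergenic genomic probes and negative controls, bound GST-tagged P. falciparum DNA-binding domains were detected with Alexa488 anti-GST antibody and scanned at 488 nm. The domains had been expressed in E. coli, and binding took place in 1× PBS with 1% milk, 0.2 mg/ml BSA, 0.5% salmon testes DNA and 0.03% Triton X-100. Binding intensity is the highest Masliner-normalised natural-log median intensity across replicate spots of either probe orientation.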

| Sequence | gcPBM binding intensity (ln) |
| --- | --- |
| TATGTTCCTTTTTGTTGTACTGAAAAATTATGTTCA [XGTACX_site3981] | 9.72 |
| ATAATATAAATTAATTTACACACTAATAAATATATA [CACACA_site9259] | 9.64 |
| TATTTATATTTATATACACACATACATATTTATATT [CACACA_site6535] | 9.93 |
| ATTGTGTTAATGAAATGTACATTTTCTCTACGTTAA [XGTACX_site1322] | 9.72 |
| AATATTATGTATAACCGTACATTATATATATAATAA [XGTACX_site1594] | 9.55 |
| TTAAACTTGTTTTGGATGCACTATATAATTCATTTT [GTGCAC_site9549] | 9.64 |
| ATTAAAATAATTTAATTTCTTAGACACAATTTGTAA [GTGCAC_negctrl_site331] | 9.31 |
| GTGTAAAGGTATTATTGTATTATTCAAAATAAAAAA [CACACA_negctrl_site637] | 9.62 |
| TCCTACATATTATAGTGTACATTTTCATGTTCATAT [XGTACX_site4308] | 9.86 |
| AAGTATTATATATTTTGTACATATATAAAACCACAA [XGTACX_site5508] | 9.61 |
| TATTTTGTAATAATTACACACGGAATTATAACAGAA [CACACA_site2355] | 9.79 |
| TCTTAATTTGTTATATGTACATAATATAATTGTATA [XGTACX_site5184] | 9.55 |
| TTATATTAATAAAAAGAAAATCATTTTTTCTTTTAT [CACACA_negctrl_site1595] | 9.32 |
| ATATATATATTTATATTTATATGTAAATATCAACGT [TGCATGCA_negctrl_site32] | 9.66 |
| AATATATAGAGAGATATGCACACTGTATGAATGCAC [CACACA_site2677] | 9.78 |
| TATATTAATAATAAGTGTACATATATATATATTTTT [XGTACX_site288] | 9.72 |
| TATTTTTTCTTTCATTGTACTTTTTTTTTGTTTTGT [XGTACX_site4081] | 9.97 |
| AATGAGAAATATAATTGTACATATATTTATTTTCAT [XGTACX_site3669] | 9.54 |
| ATTTGTAAAAAATTCATACACACGTCTTATTTTTAA [CACACA_site1390] | 9.68 |
| AATACTATTATTATTGCACACTTATTATCCCTCGGA [CACACA_site4262] | 9.71 |
| TATCCATTTCTTTATGTGCACATTAAATATATTTGT | 9.94 |
| TATAAAAATATTTCTACACACATTAATATATATATA [CACACA_site1150] | 9.64 |
| CAAAAGGATAGGCACACACACACACCCATATATATA [CACACA_site2199] | 11.1 |
| AATATGTCTATATTTTTTATATGGAAATATTATAAA [GTGCAC_negctrl_site700] | 9.28 |

— the supplement of paper PMC11417369
